According to PubChem BioAssay AID504332 (National Center for Advancing Translational Sciences (NCATS), 2011):
Among all 350,000 compounds or so, about 31,000 (8.9%) were called active. Inconclusive results, whose numbers are uncertain, are shown with a selection of clear calls. Calls come from the whole dose curve; as a rule, active = well fitted inhibition curve with a large enough effect; inconclusive = small, poorly fitted or top-dose-only effect; inactive = no such curve, though single readings can be large or run the other way. Where the call is inconclusive, the potency comes from a doubtful curve fit.

Biological target: Histone-lysine N-methyltransferase EHMT2 (Homo sapiens) (UniProt Q96KQ7)
Chain of UniProt Q96KQ7 (Q96KQ7 whole entry, looked up): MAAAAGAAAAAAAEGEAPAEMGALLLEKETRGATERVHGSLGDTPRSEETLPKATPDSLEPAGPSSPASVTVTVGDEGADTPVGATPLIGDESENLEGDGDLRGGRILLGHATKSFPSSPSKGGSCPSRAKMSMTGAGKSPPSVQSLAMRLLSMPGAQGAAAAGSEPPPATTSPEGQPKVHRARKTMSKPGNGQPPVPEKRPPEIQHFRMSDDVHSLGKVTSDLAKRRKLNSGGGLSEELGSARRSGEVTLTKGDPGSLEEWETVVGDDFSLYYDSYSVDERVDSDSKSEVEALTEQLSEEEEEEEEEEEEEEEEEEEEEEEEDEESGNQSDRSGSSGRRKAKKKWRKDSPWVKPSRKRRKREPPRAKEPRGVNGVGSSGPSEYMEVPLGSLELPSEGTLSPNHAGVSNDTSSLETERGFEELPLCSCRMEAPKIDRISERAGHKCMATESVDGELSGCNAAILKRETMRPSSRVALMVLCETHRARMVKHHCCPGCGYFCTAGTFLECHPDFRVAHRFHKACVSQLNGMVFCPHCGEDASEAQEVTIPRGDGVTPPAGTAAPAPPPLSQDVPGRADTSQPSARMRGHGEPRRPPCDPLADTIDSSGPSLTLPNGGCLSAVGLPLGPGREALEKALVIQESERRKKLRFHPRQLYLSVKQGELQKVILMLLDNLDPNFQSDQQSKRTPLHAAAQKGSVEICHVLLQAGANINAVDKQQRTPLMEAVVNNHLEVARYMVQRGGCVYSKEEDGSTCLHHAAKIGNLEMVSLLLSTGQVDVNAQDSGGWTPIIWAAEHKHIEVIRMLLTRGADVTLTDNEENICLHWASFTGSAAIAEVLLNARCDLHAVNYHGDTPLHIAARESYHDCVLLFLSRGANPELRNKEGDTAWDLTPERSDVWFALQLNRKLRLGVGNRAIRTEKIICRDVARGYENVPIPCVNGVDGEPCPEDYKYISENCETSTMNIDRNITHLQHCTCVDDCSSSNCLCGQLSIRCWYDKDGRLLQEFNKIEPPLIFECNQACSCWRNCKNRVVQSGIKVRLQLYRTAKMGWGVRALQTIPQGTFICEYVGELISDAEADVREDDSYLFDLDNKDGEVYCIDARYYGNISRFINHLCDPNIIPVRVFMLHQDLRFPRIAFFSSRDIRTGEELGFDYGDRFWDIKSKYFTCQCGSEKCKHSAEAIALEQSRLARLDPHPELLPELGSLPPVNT
Assay: qHTS Assay for Inhibitors of Histone Lysine Methyltransferase G9a; note: nearly all actives have a fitted effect of over 75% in size
Conditions: G9a H3K9 monomethylation, AlphaScreen, 2 h; activity, negative = inhibition: at 59 µM (top of the series) unless noted
In short: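 Using a bead-based AlphaScreen, monomethylated H3K9 product from 2 h room-temperature reactions (G9a 20 nM, peptide 500 nM, SAM 20 uM) was detected with 0.5 ug/mL rabbit anti-H3K9me1 antibody.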
% is set by controls: 0 for no effect and ±100 for the full control effect; potency is the fitted concentration of half-maximal effect; tags give direction and shape of the fitted curve.

SMILES	Potency	activity, negative = inhibition
CCC1(CC)Cc2ccccc2-c2nc(CN(C)C)[nH]c(=O)c21	inconclusive: 0.316 µM [inhibitor, partial curve, poor fit]	–
COc1ccc(OC)c(NC(=O)CN(C)S(=O)(=O)c2ccc(Cl)cc2)c1	inconclusive: 25.1 µM [inhibitor, partial curve, poor fit]	–
CN(C)c1ccc(NC2=C(Cl)C(=O)c3ccccc3C2=O)cc1	active: 2.24 µM	–
O=[N+]([O-])c1cc(-c2ncccn2)cs1	inconclusive: 31.6 µM [inhibitor, single point]	–
Cn1c(N2CCOCC2)cc(=O)n(C)c1=O	–	inactive: 18.5%
CCn1ncc(/C=C2/SC(=S)NC2=O)c1C	active: 50.1 µM	–
O=C(Nc1ccccc1-c1nc2ccccc2[nH]c1=O)c1cccs1	inconclusive: 89.1 µM [inhibitor, single point]	–
Cc1cc(C)c2c(N)c(S(=O)c3ccc(C(C)(C)C)cc3)sc2n1 (configuration not stated)	inconclusive: 39.8 µM [inhibitor, single point]	–
CC(C)(C)NCc1cc(Br)ccc1OC1CCCC1	inconclusive: 44.7 µM [inhibitor, partial curve]	–
COc1ccc(NC(=O)c2cc3c(=O)n4ccccc4nc3n2C)cc1OC	–	inactive: 3.96% [at 102 µM]
CCOc1cc(/C=C2\C(=O)N(Cc3ccc(C)cc3)C(C)=C2C(=O)OC)ccc1O	active: 8.91 µM	–
COc1ccc(Cn2ccnc2SCC(=O)Nc2ccccc2OC)cc1	active: 44.7 µM	–
CCOc1cc(/C=C2\C(=O)N(Cc3ccco3)C(C)=C2C(=O)OC)ccc1O	active: 8.91 µM	–
COC(=O)N/N=C/c1c(C)nn(-c2cccc(Cl)c2)c1Cl	inconclusive: 7.08 µM [inhibitor, single point]	–
Cc1occc1C(=O)NC(C)C1CCCO1 (configuration not stated)	inconclusive: 28.2 µM [inhibitor, single point]	–
COc1cccc(-c2nc(NC3CCCC3)c3ccccc3n2)c1O	inconclusive: 79.4 µM [inhibitor, single point]	–
N#Cc1cccc(-c2ccc3ncnc(NCc4ccccc4)c3c2)c1	–	inactive: 3.92% [at 0.501 µM]
COCCn1nnnc1CN1CCSCC1	inconclusive: 89.1 µM [inhibitor, single point]	–
COc1cc(OC)c(NC(=O)Cn2cnc3sc(C)c(S(=O)(=O)N4CCOCC4)c3c2=O)cc1Cl	–	inactive: -0.489% [at 102 µM]
CCNc1nc(NC(N)=S)nc(NC(C)(C)C)n1	active: 3.55 µM	–
Cc1cc(C)n2c(=S)[nH]nc2n1	active: 1.12 µM	–
O=S(=O)(c1cc(F)ccc1F)N1CCN(C2CCCCC2)CC1	–	inactive: 12.6% [at 102 µM]
Nc1nc(CN2CCN(c3ccccn3)CC2)nc(Nc2ccc(Cl)cc2)n1	active: 50.1 µM	–
CN(C)c1ccc(NC(=O)CSc2nc3c(c(=O)[nH]2)CCCC3)cc1	–	inconclusive: -68.3% [inhibitor]

SMILES	Potency	activity, negative = inhibition
O=C(Nc1ccc(N2CCOCC2)cc1)NC1CCCCC1	inconclusive: 50.1 µM [inhibitor, partial curve, poor fit]	–
Cc1cc2ccccc2n2c(SCC(=O)NCC3CCCO3)nnc12 (configuration not stated)	–	inconclusive: -70.8% [inhibitor]
CCN(Cc1ccccc1)C(=O)c1cnn(-c2ccc(F)cc2)c1-n1cccc1	inconclusive: 6.31 µM [inhibitor, single point]	–
CCC(Sc1nnc(C)n2c1cc1occc12)C(=O)Nc1ccccc1OC (configuration not stated)	–	inactive: -7.46%
Cc1ccc(NC(=O)c2cnn3c2NC(c2ccccc2)=CC3c2ccccc2)cc1 (configuration not stated)	inconclusive: 11.2 µM [inhibitor, partial curve, poor fit]	–
COc1ccc(S(=O)(=O)N(C)C)cc1NC(=O)c1ccc(OCC(=O)N2CCOCC2)c(OC)c1	active: 50.1 µM	–
CCCn1c2ccccc2c2nnc(SCC(=O)Nc3cccc(C(C)=O)c3)nc21	–	inactive: 3.92%
Nc1nc2c(c(=O)[nH]1)N(C=O)C(CNc1ccc(C(=O)NC(CCC(=O)O)C(=O)O)cc1)CN2 (configuration not stated)	–	inactive: -25.9% [at 2.33 µM]
O=C1NCCCC2c3c(cc(Br)c(O)c3Br)OC12N1CCCCC1 (configuration not stated)	inconclusive: 20 µM [inhibitor, single point]	–
O=C(NCCCc1ccccc1)[C@@H]1Cc2ccccc2CN1	–	inactive: -5.9% [at 102 µM]
C1=CC2CC1CC2CNCc1ccco1 (configuration not stated)	inconclusive: 1.78 µM [inhibitor, partial curve, poor fit]	–
Cc1coc2c1C(=O)C(=O)c1c-2ccc2c(C)cccc12	inconclusive: 3.16 µM [inhibitor, single point]	–
COc1cc(C2C(C#N)=C(N)Oc3cc(N)ccc32)cc(OC)c1OC (configuration not stated)	inconclusive: 25.1 µM [inhibitor, single point]	–
CCc1ccc(NS(=O)(=O)c2ccc3[nH]cc(C(=O)NCCCOC(C)C)c(=O)c3c2)cc1	inconclusive: 28.2 µM [inhibitor, single point]	–
CN1CCN(C(=O)/C=C/c2ccccc2)CC1	inconclusive: 70.8 µM [inhibitor, single point]	–
CCc1ccc(N2CC(C(=O)Nc3ccc(C)c(S(=O)(=O)N4CCOCC4)c3)CC2=O)cc1 (configuration not stated)	–	inactive: -70%
O=C(NCc1cccnc1)c1nn(-c2ccc(F)cc2)nc1CO	–	inactive: 2.95%
COCCNC(=S)N(CCc1c(C)[nH]c2ccc(Cl)cc12)Cc1cccs1	inconclusive: 11.2 µM [inhibitor, full curve, poor fit]	–
CN1C2CCC1/C(=C\c1ccccc1F)C(=O)/C2=C/c1ccccc1F	active: 50.1 µM	–
Nc1nc(-c2cc3c(cc2Cl)OCCO3)cs1	active: 14.1 µM	–
CCCOc1ccc(-c2nc(C#N)c(N3CCN(C)CC3)o2)cc1	inconclusive: 25.1 µM [inhibitor, single point]	–
CCCn1c(SCC(=O)Nc2ccc(C)c(S(=O)(=O)N3CCOCC3)c2)n[nH]c1=O	inconclusive: 89.1 µM [inhibitor, single point]	–
Cc1ccc(N(CC(=O)Nc2ccc(Cl)cc2)S(=O)(=O)c2cccc3nonc23)cc1	inconclusive: 25.1 µM [inhibitor, partial curve, poor fit]	–
